From a compilation of properties of binary mixtures (doi:10.1007/s11426-012-4655-1)
Some of these densities may be calculated back from excess volumes.

Experiment: xn = mol fraction of the nth substance listed
Conditions: 101 kPa

CCCCCC[n+]1ccn(C)c1.F[P-](F)(F)(F)(F)F + CCCCCC[n+]1ccn(C)c1.[Cl-]
mass density [kg/m3]
Conditions	303.15 K	308.15 K	313.15 K	318.15 K	323.15 K	328.15 K	333.15 K
x2 = 0	1289.5	–	1281.5	1277.6	1273.7	1269.9	1266
x2 = 0.2	–	1242.9	1239.2	1235.4	1231.6	–	1224.3
x2 = 0.4	–	1196.9	1193.4	–	1186.3	1182.8	1179.4
x2 = 0.6	1150.4	1147.1	1143.8	1140.5	–	1133.9	1130.6
x2 = 0.8	1096	1092.9	–	1086.7	1083.7	1080.7	1077.6

CCCCCCCCn1cc[n+](C)c1.[Cl-] + CCCCCCCCn1cc[n+](C)c1.F[B-](F)(F)F
x1 = 1
Conditions	mass density [kg/m3]
303.15 K	1007.2
308.15 K	1004.4
313.15 K	1001.5
323.15 K	995.8
333.15 K	990.2

CCCCCCCCn1cc[n+](C)c1.F[B-](F)(F)F + CCCCCCCCn1cc[n+](C)c1.[Cl-]
mass density [kg/m3]
Conditions	303.15 K	308.15 K	313.15 K	318.15 K	323.15 K	328.15 K	333.15 K
x2 = 0	–	1096.8	1093.5	1090.2	1086.8	1083.5	–
x2 = 0.2	1083.3	1080	1076.7	1073.4	1070.3	1067.1	1063.9
x2 = 0.4	–	1062.3	1059.1	1055.9	1052.8	1049.6	1046.6
x2 = 0.6	1046.9	1043.8	1040.7	1037.7	1034.6	1031.6	1028.5
x2 = 0.8	1027.5	1024.5	1021.6	–	1015.7	1012.7	1009.8
